Data on 66 compounds can be found in ChEMBL document CHEMBL4888484, “Replenishing the malaria drug discovery pipeline: Screening and hit evaluation of the MMV Hit Generation Library 1 (HGL1) against asexual blood stage Plasmodium falciparum ,using a nano luciferase reporter read-out” (2022).

The subject of the assay is Plasmodium falciparum. The assay is described as follows: Confirmatory screen in NF54 nanoGlo assay, in single point, at 2uM, 72h. To be noted: timepoint 72 hour. The assay is classed as functional, Erythrocyte.

Where “and” joins values, the source holds several entries; their conditions need not be identical. Identical values can stand only once. About 420 (8.8%) of roughly 4,800 compounds showed an effect of 50% or more. The list shows a part of the results.

One may read the % Inhibition as the relative decrease from the control value, in per cent.

Regarding `COc1cccc(NC(=O)N2C[C@@H]3C[C@H](NS(C)(=O)=O)[C@H]2C3)c1`, the “% Inhibition” value came out at 0%.
Take `C[C@@H](CO)NC(=O)Nc1cc(Br)c(F)cc1Cl`: the “% Inhibition” value is -3%.
Take `Cc1cc(C)n(CCC(=O)N2CC[C@H](c3nc(C4CCOCC4)no3)C2)n1`: the “% Inhibition” value is on record as -1%.
Same read-out and setting: the figure for `CCOC(=O)[C@@H]1C(=O)Nc2cc(OC)ccc21` is 6%; for `O=C(O)Cc1cccc(NC(=O)C2C3Cc4ccccc4C32)c1` (stereo unspecified) it is -1%.
The same measure, in the same setting: to `Cc1cc(-c2ccccc2)c(C#N)c(=O)n1C(=O)c1ccc(C#N)cc1` belongs 3%.
In the case of `CC(C)NC(=O)CN(C)S(=O)(=O)c1ccc(Br)cc1`, the “% Inhibition” value is -15%.
On the same count and under the same terms, the figure for `CCN(CC)c1ccc(C(=O)C(F)(F)F)c(O)c1` is -8%; for `C=CCOCC(O)CN(Cc1c(-c2ccccc2)noc1N1CCCCC1C)CC1CCCO1` (stereo unspecified) it is 4%.
`CCC1(C)NC(=O)N(CC(O)CN2C(=O)c3ccccc3C2=O)C1=O` (stereo unspecified): the “% Inhibition” value is -5%.
On the same count and under the same terms, the figure for `CCc1cccc2c(C3=CCN(C(=O)NC[C@H]4COCCO4)CC3)c[nH]c12` is 3%.
Regarding `Cc1cc(C)cc(-n2cc(C(=O)NCCCc3ccccc3)nn2)c1`, the “% Inhibition” value is recorded as 0%.
With `Cc1cc(Nc2ccc(CN3CCCC3=O)cc2)nc(C2CC2)n1`, the “% Inhibition” value is reported as -7%.
As for `CCOc1ccc2c(n1)CCN(C(=O)c1ccsc1)C2`, the “% Inhibition” value is -12%.
For the compound `CCN1C(=O)Cc2cc(NC(=O)c3ccc(Br)o3)ccc21`, the “% Inhibition” value was -5%.
Regarding `Cc1nc(CN(C)C(=O)c2ccccc2Nc2cccc(C)c2C)cs1`, the “% Inhibition” value is on record as 0%.
Still for that read-out and setting: to `OC(CC(Nc1ccc(Cl)cc1)c1ccccc1)c1ccccc1` (stereo unspecified) belongs -8%.
Consider `Cc1occc1C(=O)NCCCn1ncc2c(C)cccc21`, for which the “% Inhibition” value is reported as 0%.
Still for that read-out and setting: the figure for `COc1ccc(OC)c(NC(=O)CN2CCc3[nH]c4ccc(F)cc4c(=O)c3C2)c1` is 72%; for `CN(C)c1nc(CN2CCC(CO)CC2)ns1` it is 1%; for `CC(C)(C)c1ccc(NC(=O)c2ccnnc2)c(O)c1` it is -8%.
In the case of `CC(C)OC1CC(Nc2cccc(CO)c2)C1` (stereo unspecified), the “% Inhibition” value amounted to 2%.
Same read-out and setting: to `COc1ccsc1CNc1ccc2[nH]ncc2c1` belongs 7%; to `Cc1c2c(C(F)(F)F)cc(=O)n(CCC(=O)Nc3ccc4c(c3)OCCO4)c2nn1C`, 1%.
Still for that read-out and setting: the figure for `Cc1c(S(=O)(=O)N2CCC(C)(C(=O)NCc3ccc(F)cc3)CC2)cnn1C(F)F` is 1%; for `C[C@@H](c1cc(Cl)ccc1Cl)n1nccc1NC(=O)c1ccoc1` it is -7%.
`Cc1ccc(Nc2c(-c3ccco3)nc3nc(C)cc(C)n23)cc1`: the “% Inhibition” value is -1%.
On the same count and under the same terms, to `Cc1ccc(C(=O)N2CCCC23CCC3)nn1` belongs -11%; to `CS(=O)(=O)CCOc1cccc(NCc2cocn2)c1`, -8%.
Still for that read-out and setting: to `Cc1cc(C(=O)N2CCC3(CCNCC3)CC2)ccc1F` belongs 1%.
Take `O=C(C[C@H]1CCOC1)Nc1cccc(F)c1`: the “% Inhibition” value is -13%.
On the same count and under the same terms, to `CS(=O)(=O)n1cnc2cc(F)c(F)cc21` belongs -5%; to `Cc1ccc(NC(=O)C2CC2c2ccccc2)cc1NC(=O)C1CC1c1ccccc1` (stereo unspecified), -2%.
Still for that read-out and setting: the figure for `CCCNCc1cc(Br)ccc1OCC(N)=O` is -6%.
As for `CC(C)CC[C@@H](CCNCCN(C)C)c1ccc(Cl)cc1`, the “% Inhibition” value was found to be 96%.
Regarding `CC(C)NC[C@H]1COCc2nc3ccccc3n21`, the “% Inhibition” value was -15%.
For `O=C(Nc1ccc(-c2nc3cnccc3o2)c(Cl)c1)c1sc2ccccc2c1Cl`, the “% Inhibition” value is -5%.
On to `COc1ccc(S(=O)(=O)N[C@H]2CCCc3cn(CC(F)(F)F)nc32)cc1`, for which the “% Inhibition” value is 11%.
On the same count and under the same terms, the figure for `Clc1ccc(C[n+]2ccc(-c3nc4ccccc4o3)cc2)c(Cl)c1` is 58%; for `COc1ccc(C(=O)N2CCCn3cc(-c4ccccc4F)nc32)cn1` it is 1%; for `CNC(=O)c1cc(N2CCN(c3ncc(C(F)(F)F)cc3Cl)CC2)ccc1NC(=O)c1ccccc1Cl` it is 7%.
Turning to `Cn1ncnc1CNc1cccc(Cl)c1Br`, the “% Inhibition” value is reported as 5%.
For the compound `COCc1cc(F)ccc1NC(=O)NC1CCN(c2cc(C)nc(C)n2)CC1`, the “% Inhibition” value is reported as -5%.
Consider `Cc1ccc(C2c3ccsc3CCN2CCC(=O)N2CCN(C(=O)Cc3cccs3)C(C)C2)cc1` (stereo unspecified), for which the “% Inhibition” value was 37%.
As to `O=C(Nc1ccccc1N1CCOCC1)[C@@H]1CC=CCC1`, the “% Inhibition” value is reported as -10%.
Same read-out and setting: the figure for `Cc1ccn2c(CN3CCN([C@H]4CCN(Cc5ccccc5)C4)CC3)c(C)nc2c1` is 8%.
As for `COc1cccc(-c2nc(C)c(C(=O)Nc3n[nH]c(CC(C)C)n3)s2)c1`, the “% Inhibition” value (2 µM) was 78% and 70%.
For the compound `O=C(NC1=NN2C(=NC(c3ccc(Cl)cc3)=C[C@H]2c2ccc(F)cc2)N1)c1ccc(Cl)cc1`, the “% Inhibition” value is given as 32%.
As for `CS(=O)(=O)N1CC[C@H](CC(=O)N2CCN(c3ccc(F)cc3)CC2)C1`, the “% Inhibition” value is -14%.
Still for that read-out and setting: to `COc1ccc(C(C)(C)C(=O)N(C)Cc2cn(C)nc2C(C)C)cc1` belongs -2%; to `Cc1cc(NCc2noc(-c3ccsc3)n2)ccc1C(N)=O`, 2%.
As to `N#Cc1ccc2c(c1)N(Cc1ccccc1F)C(=O)[C@@H]1CCCN21`, the “% Inhibition” value is reported as -7%.
Take `Cc1cc(Cn2cc(C(c3ccccc3)c3ccccc3)nn2)no1`: the “% Inhibition” value was -3%.
Regarding `Cc1ccc(CNC(=O)[C@@H](C)C2CCOCC2)cc1C`, the “% Inhibition” value is reported as -8%.
Still for that read-out and setting: the figure for `CCOCc1nc(-c2ccc(=O)n(C)c2)no1` is -1%; for `CC1CN(CCCNC(=O)Cc2c[nH]c3ccc(F)cc23)CC(C)O1` (stereo unspecified) it is -1%; for `CCc1c([C@H](C)S(=O)(=O)c2ccccc2)[nH]c(=O)n1C(C)(C)C` it is -20%.
For `O=C(c1nccnc1-c1nc2ccccc2s1)N1CCc2sccc2C1`, the “% Inhibition” value was -10%.
In the case of `Cc1ccccc1Nc1c(-c2c[nH]c3ccccc23)nc2ncccn12`, the “% Inhibition” value turned out to be 1%.
With `CN([C@H]1CCc2nn(CC3CC3)c(=O)n2CC1)S(=O)(=O)c1ccccc1C(F)(F)F`, the “% Inhibition” value is reported as -8%.
For the compound `CN(CC(F)(F)F)C(=O)CNC(=O)c1cc(F)cc(Cl)c1O`, the “% Inhibition” value is -2%.
For the compound `COc1cc(C=C(C(=O)Nc2ccccc2F)C(=O)Nc2ccccc2F)ccc1OCC(=O)Nc1cccc(C(F)(F)F)c1`, the “% Inhibition” value is reported as -13%.
Consider `CS(=O)(=O)N(CCCC(=O)N1CC(=O)Nc2ccccc21)c1cc(Cl)ccc1Cl`, for which the “% Inhibition” value is on record as 5%.
Consider `COc1ccc2[nH]c3c(c2c1)CC(C(=O)O)NC3c1ccc(OC)c(CN2CCN(c3ccccc3F)CC2)c1` (stereo unspecified), for which the “% Inhibition” value is recorded as 76%.
Same read-out and setting: the figure for `CC1COCCC1NCc1ncn(Cc2cccc(F)c2)n1` (stereo unspecified) is -4%.
As for `Cc1cccc(NC(=O)c2c(C)sc3ncnc(N4CCCCC4)c23)c1C`, the “% Inhibition” value was determined as 10%.
